The results in this text go back to publication PMC12136788.

To fix the notation:
B1: chr10:60026297:60029826:-|three_prime_utr|ENSG00000151150|control|control|control (ssRNA)
RNA: GGGAGUUCUACAGUCCGACGAUCAAUGGCAUGAUUUUUUUUAUGCAAAAAGAAAAGAAAAGAAAACCACCCACAUUUUAAUUUAGCAUGAGCCAAUUUACAGAGCAUGGAAAUCACUUUCAUUUCCGGAUUGGCGCGUGUGCACAACAGAGGAUUGAGCAUCA
B2: chr13:106491723:106491923:-|3pUTR|ENSG00000125266|msi1|FALSE|unique (ssRNA)
RNA: GGGAGUUCUACAGUCCGACGAUCCAGACUCAGCUGCUAUACUUAUCACAUUUUAUUAAACACAGGGAAAGCAUUUAGGAGAAUAGCAGAGAGCCAAAUCUGACCUAAAAGUUGAAAAGCCAAAGGUCAAACAGGCUGUAAUUCCAACAGAGGAUUGAGCAUCA
B3: ENSG00000105894:stop:overlap|stop_codon|ENSG00000105894|stop_codon|NA|stop_codon (ssRNA)
RNA: GGGAGUUCUACAGUCCGACGAUCCCAAACCUCAAGAGAAGGGAAAAUGGAGACACAGGAGUGGGGAGAGUUUGAGAAGAUGGUAGAGAGGAGUGUUUGGGUGAAGGGAGAUGGAUUCGUCUACUGAUGCAACUGCAGAAUCUACAACAGAGGAUUGAGCAUCA
B4: chr1:232398519:232398625:-|3pUTR|ENSG00000116991|unk|FALSE|unique (ssRNA)
RNA: GGGAGUUCUACAGUCCGACGAUCACAGUAGUUUUAUUUCCACAGCCACAUUACCAUAGCAAUAAGAAAGGAGGCAUAGUACAUAGUUGGAAAAGCUUUGUGGGGGGAUUAAAAAAAAAAAAAAGCACUGUUGUGUUUAACACUCAACAGAGGAUUGAGCAUCA
B5: ENSG00000163346:stop:overlap|stop_codon|ENSG00000163346|stop_codon|NA|stop_codon (ssRNA)
RNA: GGGAGUUCUACAGUCCGACGAUCAGAGCCUGCCUUCAACCCCCAAAGCAGUCACCUCACUGCCCUGUCCCUGUCCUUUCCCCUAGCUUGGAUCAGGGAGGAGGGCCGCUGCUCCAGCAGUGACGAUGACACCGACGUGGACAUCAACAGAGGAUUGAGCAUCA
B6: chr17:35577220:35577322:-|CDS|ENSG00000108733|unk|total|mutant (ssRNA)
RNA: GGGAGUUCUACAGUCCGACGAUCUCUAUUAUGUUCCUGGUUCUUCUUCCCUAUCUGAAAGUGAAGCUGGAGAAGCUGGUUUCCCGCCUGAGAGAAGAGGAUGAAUAUUCUAUUCAUCCCCCUUCUUCCCGCUGGAAACGAUUUCAACAGAGGAUUGAGCAUCA
B7: chr7:157269180:157269282:+|3pUTR|ENSG00000009335|unk|FALSE|unique (ssRNA)
RNA: GGGAGUUCUACAGUCCGACGAUCAUUUUAGGUUGUUUUAUGUUGAAUGUUCUAUAUCUUAUUAGUUAAUUUGUAUAUUUUAUUAGUAUUUUGGAAAUAGCAUAUCUGAGACUGAAGAGAAAUUGACAAUUCACUUAUUUGUGGCAACAGAGGAUUGAGCAUCA
B8: chr4:56809860:56810169:-|three_prime_utr|ENSG00000128040|control|control|control (ssRNA)
RNA: GGGAGUUCUACAGUCCGACGAUCCCCUGCUGAUGGAGCAGUUUACAGAAAAGAAGAUGGAGAGACCACCUUCACUGGCAGACUAGAUAAAUUGCAUUUCCCCUUUUUCUCUUUUCCUGUGUUUCUUUACAUGAGAUUUGUUAACAACAGAGGAUUGAGCAUCA
B9: chr13:106491261:106491362:-|3pUTR|ENSG00000125266|msi1|FALSE|unique (ssRNA)
RNA: GGGAGUUCUACAGUCCGACGAUCACAAUAAUGAGAGCAAAUGCAAAAAUAACCAAGUCCUCCGAAGGCAUCUCACGGAACCGUAGACUAGGAAGUACGAGCCCCACAGAGCAGGAAGCCGAUGUGACUGCAUCAUAUAUUUAACAACAGAGGAUUGAGCAUCA
B10: ENSG00000143401:stop:overlap|stop_codon|ENSG00000143401|stop_codon|NA|stop_codon (ssRNA)
RNA: GGGAGUUCUACAGUCCGACGAUCGUCUUCGAGGGGAGAAGAGGAAACGAGAUGCUGAAGACGAUGGAGAGGAAGAAGAUGACUAGAUCAUUCUAAGACCAGAUUCUCUAAUGUUUCUGGGUGUGCAAUAGAGUGAUCACAUCUCAACAGAGGAUUGAGCAUCA
B11: chr4:78448087:78448188:+|CDS|ENSG00000138759|msi1|FALSE|unique (ssRNA)
RNA: GGGAGUUCUACAGUCCGACGAUCGCCUCUGGAGAAUGGGAGAGUUUUAGUCCAGGGCUCAACCUUCACCUACCAGGAUAUCCUAGCUGGGCUGGUUGGGUAUGUGCCUAGUGUCCCUGGCAUGGUCGUGGAUGAGUUCCAGUUCAACAGAGGAUUGAGCAUCA
B12: chr3:120395571:120395798:-|3pUTR|ENSG00000163430|msi1|total|mutant (ssRNA)
RNA: GGGAGUUCUACAGUCCGACGAUCUGGUUCUGAUCAUUGGUCCAGAGGGGAGACCGGUUCCUGUGAUUUUUCCUUCUUCUCUACCGAAUAAAUGAAAUCUUGUUACCCGAACAAGAAAUGUCAGAUGGCCAAAAACAAGAUGACCAACAGAGGAUUGAGCAUCA
B13: chr11:27366961:27367062:-|3pUTR|ENSG00000205213|msi1|total|mutant (ssRNA)
RNA: GGGAGUUCUACAGUCCGACGAUCUGAAUACUUCCUAAUAUCGUUGGCUCUACUAAUAUUUUCCAAUUUGCUGGGAUGUCACCCCGCAACCGCUUGGAUUAUACCGAAAGUAAACUGUGGUCAAUACUUGCAUUUAAUCCGACGCAACAGAGGAUUGAGCAUCA
B14: chr11:613205:613595:-|three_prime_utr|ENSG00000185507|control|control|control (ssRNA)
RNA: GGGAGUUCUACAGUCCGACGAUCCUGCACGUUCCUAUACGGCCCCCCAGACCCAGCUGUCCGGGCCACAGACCCCCAGCAGGUAGCAUUCCCCAGCCCUGCCGAGCUCCCGGACCAGAAGCAGCUGCGCUACACGGAGGAACUCAACAGAGGAUUGAGCAUCA
B15: chr11:95167508:95167609:-|3pUTR|ENSG00000149212|unk|total|mutant (ssRNA)
RNA: GGGAGUUCUACAGUCCGACGAUCAAUAAUGGAGACUGAAUGAGGCGGUUUGUAUUAAAUUAUAUGCCAUGAAGUGUUCAUUUCCGCUUUAACCUAAUUAUGACUGUACCACCAUGAAGUACAGAAUGAAAAAUUAUAUAUAUGCAACAGAGGAUUGAGCAUCA
B16: chr16:88813726:88813828:-|3pUTR|ENSG00000141012|unk|FALSE|unique (ssRNA)
RNA: GGGAGUUCUACAGUCCGACGAUCUCCCUGGACGCUAAUUAUGAGGGAGGCGUGUAGCUUCUUAUCAUUGUAACUAUGUUAUUUAGAAAUAAAACGGGAGGCAGGUUUGCCUAAUUCCCAGCUUGAUUUUUCUCUUGGCUGAGUCAACAGAGGAUUGAGCAUCA
B17: chr5:122065063:122065164:-|3pUTR|ENSG00000113083|msi1|FALSE|unique (ssRNA)
RNA: GGGAGUUCUACAGUCCGACGAUCUCAACUGGCGGAUAUAGCGGUACAUAUGAUCCUUAGCCACCAGGGCACAAGCUUACCAGUAGACAAUACAGACAGAGCUUUUGUUGAGCUGUAACUGAGCUAUGGAAUAGCUUCUUUGAUCAACAGAGGAUUGAGCAUCA
B18: chr6:21593967:21594078:+|5pUTR|ENSG00000124766|unk|FALSE|bound_elsewhere (ssRNA)
RNA: GGGAGUUCUACAGUCCGACGAUCUUAGUGCCGAUUCCGCCCACAGAGAGUCCUGGAGCCACAGUCUUUUUUGCUUUGCAUUGUAGGAGAGGGACUAAGUGCUAGAGACUAUGUCGCUUUCCUGAGCUACCGAGAGCGCUCGUGCAACAGAGGAUUGAGCAUCA
B19: chr10:16593140:16593241:-|3pUTR|ENSG00000148484|unk|total|mutant (ssRNA)
RNA: GGGAGUUCUACAGUCCGACGAUCUUAUUUUUCUUUUCACUCUCUUUCUAAUGCUUCCCACCUUACCUUUCCGAUUCUUUUGCCCGGUGGGAGAUUGUUAUAAGGUCUUUAAACCAUUUCCAUUUGUUUCUUUAACAUUACCAACAACAGAGGAUUGAGCAUCA
B20: chr4:175634378:175634624:-|3pUTR|ENSG00000150625|msi1|total|mutant (ssRNA)
RNA: GGGAGUUCUACAGUCCGACGAUCUUUCUUAUGUUUUGAAAAGAAAACCGCUUUUUAUACUUUUCCGUUUUGAUUUCGGUAACCCGUUUAACUACAGGUAACCUUCAAAGGGACCAUUGUACAUUAUGAACAACCGACCGAGAUCAACAGAGGAUUGAGCAUCA
B21: chr2:85327303:85327429:-|CDS|ENSG00000152291|msi1|FALSE|bound_elsewhere (ssRNA)
RNA: GGGAGUUCUACAGUCCGACGAUCACCCAAAAAGGCAGCACUAGCAAGUCGGGUUCGGAGGCGCAGACCACAAAAGACAGCACUAGUAAGUCGCAUCCGGAGCUGCAGACUCCAAAAGACAGCACUGGCAAAUCGGGUGCGGAGCAACAGAGGAUUGAGCAUCA
B22: chr10:30313878:30313980:-|CDS|ENSG00000107951|unk|FALSE|unique (ssRNA)
RNA: GGGAGUUCUACAGUCCGACGAUCUGUUUUUAUAUUUAAGCCCUUCAUGUACUUACUCAUUUUUUCUUCUGUGUAAUAAUCUAUAGGGAAGGGAGCAAAACAAACCUGAUUCUUCUCCUCUGUACAUUCAGAAUCCAUUUGAAACAACAGAGGAUUGAGCAUCA

The list shows a part of the results.

For the assay, the target named is MSI1 full-length (mouse, UniProt Q61474 1-362). The experiment in a line: nsRBNS (natural sequence RNA bind-n-seq); RBNS binding buffer (assumed for nsRBNS): 25 mM Tris pH 7.5, 150 mM KCl, 3 mM MgCl2, 0.01% Triton X-100, 500 ug/ml BSA, 20 U/ml SUPERase-In, 4 C; UNK is unkempt and MSI1 is Musashi-1; names of the RNAs are library labels; protein concentration not given here; high values mean tight binding.
Chain of UniProt Q61474 (Q61474 whole entry): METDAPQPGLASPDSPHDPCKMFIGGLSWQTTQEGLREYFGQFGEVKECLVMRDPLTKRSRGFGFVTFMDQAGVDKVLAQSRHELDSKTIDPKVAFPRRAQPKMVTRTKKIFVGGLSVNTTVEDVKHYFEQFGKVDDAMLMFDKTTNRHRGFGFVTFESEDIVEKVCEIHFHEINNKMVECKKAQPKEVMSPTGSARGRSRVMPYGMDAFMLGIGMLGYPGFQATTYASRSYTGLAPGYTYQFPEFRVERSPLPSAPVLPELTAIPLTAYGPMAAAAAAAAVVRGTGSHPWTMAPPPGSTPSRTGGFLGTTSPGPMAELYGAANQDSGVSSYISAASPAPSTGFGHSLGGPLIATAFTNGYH
On to B1, for which the binding signal worked out at 0.263 enrichment R.

As to B2, the binding signal was determined as 3.84 enrichment R.

On to B3, for which the binding signal came to 0.516 enrichment R.

In the case of B4, the binding signal was 18.4 enrichment R.

With B5, the binding signal was found to be 0.512 enrichment R.

B6 displayed a binding signal of 0.307 enrichment R.

B7 yielded a binding signal of 12.7 enrichment R.

In turn, B8 registered a binding signal of 0.55 enrichment R.

B9 gave a binding signal of 1.47 enrichment R.

For B10, the binding signal is 0.54 enrichment R.

Turning to B11, the binding signal amounted to 1.33 enrichment R.

B12 had a binding signal of 0.289 enrichment R.

Take B13: the binding signal was 0.259 enrichment R.

B14 yielded a binding signal of 0.649 enrichment R.

Take B15: the binding signal is 0.609 enrichment R.

B16: the binding signal stood at 1.75 enrichment R.

For B17, the binding signal stood at 0.688 enrichment R.

In turn, B18 had a binding signal of 0.616 enrichment R.

B19 registered a binding signal of 1.23 enrichment R.

As for B20, the binding signal is 0.178 enrichment R.

Consider B21, for which the binding signal was 0.748 enrichment R.

Molecule B22 returned a binding signal of 1.04 enrichment R.
